Measured values taken from the supplement of paper PMC12217912.
This is one part of the list. The full chains were built here from the parent and the listed change. Values near 0.05 are background.

B1: TEV protease; numbered along this chain (parent)
chain: MGESLFKGPRDYNPISSSICHLTNESDGHTTSLYGIGFGPFIITNKHLFRRNNGTLVVQSLHGVFKVKDTTTLQQHLVDGRDMIIIRMPKDFPPFPQKLKFREPQREERICLVTTNFQTKSMSSMVSDTSCTFPSGDGIFWKHWIQTKDGQCGSPLVSTRDGFIVGIHSASNFTNTNNYFTSVPKNFMELLTNQEAQQWVSGWRLNADSVLWGGHKVFMVKPEEPFQPVKEATQL

Variants of: B1
Assay: raw area under fraction-flipped curve 0-4 h after induction (AUC4h, not background-subtracted), DNA-recorder readout of cleavage of the substrate (dimensionless); higher = more cleavage of the substrate by the protease variant
Conditions: temperature: 34 °C; time window: 0-4 h after rhamnose induction
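Also: Bxb1 expression induced with 0.2% (w/v) L-rhamnose at OD600 near 0.5, cultures sampled hourly, flipped fraction per protease–substrate barcode pair counted by paired-end Illumina sequencing.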

Variant	area with substrate ENLYFES	area with substrate ENLYFFS	area with substrate ENLYFHS	area with substrate ENLYFIS	area with substrate ENLYFKS	area with substrate ENLYFLS	area with substrate ENLYFMS	area with substrate ENLYFPS	area with substrate ENLYFRS	area with substrate ENLYFSS	area with substrate ENLYFTS	area with substrate ENLYFVS	area with substrate ENLYFWS	area with substrate ENLYFYS	area with substrate ENLYFNS	area with substrate ENLYFGS
MGESLFKGPRDYNPISSSICHLTNESDGHTTSLYGIGFGPFIITNKHLFRRNNGTLVVQSLHGVFKVKDTTTLQQHLVDGRDMIIIRMPKDFPPFPQKLKFREPQREERICLVTTNFQTKSMSSMVSDTSCTFPSGDGIFWKHWIQTKDGQCGSPLVSTRDGFIVGIHSASNFTNTNNYFTSVPKNFMELLTNQEAQQWVPGWRLNADSVLWGGHKVFMVKPEEPFQPVKEATQL [S201P]	0.0576	0.0765	0.0584	0.0593	0.0468	0.0723	0.0528	0.0597	0.0633	0.0574	0.0586	0.0658	0.0627	0.048		
MGESLFKGPRDYNPISSSICHLTNESDGHTTSLYGIGFGPFIITNKHLFRRNNGTLVVQSLHGVFKVKDTTTLQQHLVDGRDMIIIRMPKDFPPFPQKLKFREPQREERICLVTTNFQTKSMSSMVSDTSCTFPSGDGIFWKHWIQTMDGQCGSPLVSTRDGFIVGIHSASNFTNTNNYFTSVPKNFMELLTNQEAQQWVSGWRLNADSVLWGGHKVFMVKPEEPFQPVKEATQL [K148M]	0.0759	0.0675		0.0524	0.0491	0.0674	0.0739		0.0699			0.083	0.0566	0.0591	0.0671	
MGESLFKGPRDYNPISSSICHLTNESDGHTTSLYGIGFGPFIITNKHLFRRNNGTLVVQSLHGVFKVKDTTTLQQHLVDGRDMIIIRMPKDFPPFPQKLKFREPQREERICLVTTNFQTKSMSSMVSDTSCTFPSGDGIFWKHWIQTKDGQCGSPLVSTRDGFIVQIHSASNFTNTNNYFTSVPKNFMELLTNQEAQQWVSGWRLNADSVLWGGHKVFMVKPEEPFQPVKEATQL [G166Q]	0.0485	0.0639	0.0669	0.0477	0.0705		0.0142		0.0615	0.0636	0.05	0.0505		0.0433	0.0546	
MGESLFKGPRDYNPISSSICHLTNESDGHTTSLYGIGFGPFIITNKHLFRRNNGTLVVQSNHGVFKVKDTTTLQQHLVDGRDMIIIRMPKDFPPFPQKLKFREPQREERICLVTTNFQTKSMSSMVSDTSCTFPSGDGIFWKHWIQTKDGQCGSPLVSTRDGFIVGIHSASNFTNTNNYFTSVPKNFMELLTNQEAQQWVSGWRLNADSVLWGGHKVFMVKPEEPFQPVKEATQL [L61N]	0.0637	0.0577		0.0608		0.0575	0.0751	0.0538				0.0448		0.0658	0.0683	
MGESLFKGPRDYNPISSSICHLTNESDGHTTSLYGIGFGPFIITNKHLFRRNNGTLVVQSLHGVFKVKDTTTLQQHLVDGRDMIIIRMPKDFPPFPQKLKFREPQREERICLVTTNFQTKYMSSMVSDTSCTFPSGDGIFWKHWIQTKDGQCGSPLVSTRDGFIVGIHSASNFTNTNNYFTSVPKNFMELLTNQEAQQWVSGWRLNADSVLWGGHKVFMVKPEEPFQPVKEATQL [S121Y]	0.0718	0.0765	0.0578	0.0552				0.0605				0.0665		0.0606		
MGESLFKGPRDYNPISSSICHLTNESDGHTTSLYGIGFGPFIITNKHLFRRNNGTLVVQSLHGVFKVKDTTTLQQHLVDGRDMIIIRMPKDFPPFPQKLKFREPQREPRICLVTTNFQTKSMSSMVSDTSCTFPSGDGIFWKHWIQTKDGQCGSPLVSTRDGFIVGIHSASNFTNTNNYFTSVPKNFMELLTNQEAQQWVSGWRLNADSVLWGGHKVFMVKPEEPFQPVKEATQL [E108P]	0.0862	0.0339	0.0488				0.0528				0.0632		0.0314			
MGESLFKGPRDYNPISSSICHLTNESDGHTTSLYGIGFGPFIITNKHLFRRNNGTLVVVSLHGVFKVKDTTTLQQHLVDGRDMIIIRMPKDFPPFPQKLKFREPQREERICLVTTNFQTKSMSSMVSDTSCTFPSGDGIFWKHWIQTKDGQCGSPLVSTRDGFIVGIHSASNFTNTNNYFTSVPKNFMELLTNQEAQQWVSGWRLNADSVLWGGHKVFMVKPEEPFQPVKEATQL [Q59V]	0.0884	0.0534					0.0605	0.0711					0.0697	0.0577	0.0716	
MGESLFKGPRDYNPISSSICHLTNESDGHTTSLYGIGFGPFIITNKHLFRRNNGTLVVQSLHGVFKVKDTTTLQQHLVDGRDMIIIRMPKDFPPFPQKLKFREPTREERICLVTTNFQTKSMSSMVSDTSCTFPSGDGIFWKHWIQTKDGQCGSPLVSTRDGFIVGIHSASNFTNTNNYFTSVPKNFMELLTNQEAQQWVSGWRLNADSVLWGGHKVFMVKPEEPFQPVKEATQL [Q105T]	0.0753	0.0733	0.0702	0.0604		0.0486	0.0956	0.0524	0.0673	0.0818		0.059				
MGESLFKGPRDYNPISSSICHLTNESDGHTTSLYGIGFGPFIITNKHLFRRNNGTLVVQSLHGVFKVKDTTTLQQHLGDGRDMIIIRMPKDFPPFPQKLKFREPQREERICLVTTNFQTKSMSSMVSDTSCTFPSGDGIFWKHWIQTKDGQCGSPLVSTRDGFIVGIHSASNFTNTNNYFTSVPKNFMELLTNQEAQQWVSGWRLNADSVLWGGHKVFMVKPEEPFQPVKEATQL [V78G]	0.0611	0.0749	0.0532	0.0271	0.0702		0.0491	0.0577		0.0616	0.0418				0.0524	0.0757
MGESLFKGPRDYNPISSSICHLTNESDGHTTSLYGIGFGPFIITNKHLFRRNNGTLVVQSLHGVFKVKDTTTLQQHLVDGRDMIIIRMPKDFPPFPQKLKFREPQREERICLVTTNFQTKSMSSMVSDTSCTFPSGDGIFWKHWIQTKDGQCGSPLVSGRDGFIVGIHSASNFTNTNNYFTSVPKNFMELLTNQEAQQWVSGWRLNADSVLWGGHKVFMVKPEEPFQPVKEATQL [T159G]	0.0623	0.0663	0.0397	0.0548			0.0762	0.0558	0.0649	0.0603	0.0481	0.0418	0.055		0.0731	0.0663
